# Experimental data published in PubChem BioAssay AID624296 (National Center for Advancing Translational Sciences (NCATS), 2012).
# “And” between values parts separate entries of the source, which are not always exact repeats. Equal entries are not always repeated. The whole screen tested about 350,000 compounds, of which about 9,900 (2.8%) were called active. The inconclusive results got no clear call from the source; some entries with a clear call stand among them for comparison. The call rests on the fitted dose curve; in most records, active means well fitted activation curve with a large enough effect; inconclusive means small, poorly fitted or top-dose-only effect; inactive means no such curve, though single readings can be large or run the other way. Potencies of inconclusive entries are doubtful fits and often do not repeat.
# Test: A quantitative high throughput screen for small molecules that induce DNA re-replication in MCF 10a normal breast cells. Further: nearly all actives have a fitted effect of over 50% in size.
# Conditions: MCF 10A DNA re-replication, Hoechst nuclear intensity, 48 h; series mostly up to 46.1 µM
# Potency means the concentration at half of the fitted maximal effect; tags describe the fitted curve by direction and shape.
row,SMILES,Potency
1,Cc1cccc(OCCCC(=O)N2CCCc3ccccc32)c1C,"inconclusive: 23.1 µM [activator, partial curve, poor fit]"
2,COc1ccc(-c2cc(-c3nnc(COC(=O)C4CC4C)o3)c3ccccc3n2)cc1OC (centres undefined),"inconclusive: 13 µM [activator, partial curve]"
3,O=C(Cc1ccccc1)Nc1ccc(SC(F)F)cc1,inactive
4,C=CCNc1nnc(SC2CC(=O)N(c3ccc(OCCC)cc3)C2=O)s1 (centres undefined),"inconclusive: 20.6 µM [activator, single point]"
5,CC(C)C(=O)N1N=C(c2ccc(NS(C)(=O)=O)cc2)CC1c1cccs1 (centres undefined),"inconclusive: 18.4 µM [activator, single point]"
6,COc1ccc(C)cc1NC(=O)CC1COc2ccccc2O1 (centres undefined),"inconclusive: 29.1 µM [activator, partial curve, poor fit]"
7,O=C(Nc1nc2ccccc2s1)c1ccc(F)cc1,inactive
8,Brc1ccc(CSc2nnc(-c3ccco3)o2)cc1,"inconclusive: 29.1 µM [activator, single point]"
9,CC[C@]12c3[nH]c4cc(-c5ccco5)ccc4c3CCN1C(=O)[C@@H](CC(=O)NCCCN(C)C)C[C@@H]2C(=O)N1CCN(C(=O)c2ccco2)CC1,"inconclusive: 0.0046 µM [activator, full curve, poor fit]"
10,CN(C)C(CNC(=O)c1ccc(C2SCCS2)cc1)c1ccccc1 (centres undefined),inactive
11,Cc1cccc(N2CCN(C(=O)c3ccccc3SCC(=O)N3CCCC3)CC2)c1C,"inconclusive: 2.59 µM [activator, full curve, poor fit]"
12,CC(C)C(=O)c1cn(CC(=O)NCc2ccc3c(c2)OCO3)c2ccccc12,"inconclusive: 18.4 µM [activator, single point]"
13,CC1=C(C(=O)OC(C)C)C(c2cccc([N+](=O)[O-])c2)C(C(=O)OC2CN(C(c3ccccc3)c3ccccc3)C2)=C(N)N1 (centres undefined),active: 21.1 µM
14,Cc1cc(=O)n2c(-c3ccc(Cl)cc3)csc2n1,"inconclusive: 20.6 µM [activator, single point]"
15,Cc1cccc(N2CCN(C(=O)COc3ccc4c(C)cc(=O)oc4c3C)CC2)c1C,"inconclusive: 29.1 µM [activator, single point]"
16,Cc1ccc(S(=O)(=O)N2CCC(=O)N(C(COCc3ccc(Cl)cc3)Cc3ccccc3)CC2)cc1 (centres undefined),"inconclusive: 16.4 µM [activator, partial curve]"
17,Cc1nc(SCC(=O)N2CCc3ccccc3C2)c2c(C)c(C)sc2n1,"inconclusive: 11.6 µM [activator, partial curve]"
18,Cc1[nH]c2ccccc2c1C=NNC(=O)c1cc(-c2cccnc2)nc2ccccc12,"inconclusive: 4.61 µM [activator, full curve, poor fit]"
19,CCOc1ccccc1NC(=S)NNS(=O)(=O)c1c(C)cc(C)cc1C,inactive
20,O=C(NNC(=O)c1cc(-c2ccc(Cl)cc2Cl)nc2ccccc12)Nc1ccccc1,"inconclusive: 18.4 µM [activator, single point]"

row,SMILES,Potency
1,CCN1C(=C(C#N)C#N)C=Cc2ccccc21,"inconclusive: 6.51 µM [activator, partial curve, poor fit]"
2,Cc1ccc(C)c(Cn2nnc3c(=O)[nH]c(C4CCN(S(=O)(=O)c5ccc(S(=O)(=O)N(C)C)cc5)CC4)nc32)c1,inactive
3,COc1ccc(Cl)cc1C1=CC(=O)C[C@H](c2ccc(F)cc2)C1,"inconclusive: 29.1 µM [activator, single point]"
4,COc1ccc(NC(=O)CN(c2ccc(OC)c(Cl)c2)S(=O)(=O)c2ccccc2)c(OC)c1,"inconclusive: 29.1 µM [activator, single point]"
5,COc1ccc(-c2cc(C(=O)NNC(=S)NC(=O)c3c(-c4ccccc4)noc3C)[nH]n2)cc1,inactive
6,COc1ccccc1NC(=O)C(=O)NCC1CCCN1S(=O)(=O)c1cccs1 (centres undefined),inactive
7,CC(=O)N(c1nc(CCl)cs1)c1c(C)cc(C)cc1C,"inconclusive: 29.1 µM [activator, single point]"
8,CCOc1ccc(N(C(C)C(=O)N/N=C(\C)c2cccc(NC(=O)c3ccccc3)c2)S(C)(=O)=O)cc1 (centres undefined),"inconclusive: 18.4 µM [activator, single point]"
9,Cc1sc2ncn(CC(=O)NCCCN3CC(C)CC(C)C3)c(=O)c2c1S(=O)(=O)N1CC(C)CC(C)C1 (centres undefined),inactive
10,Cc1cc(C2CCCCC2)n(O)c(=O)c1,"inconclusive: 11.4 µM [activator, partial curve, poor fit] and inconclusive: 29.1 µM [activator, single point]"
11,Cc1cc(C)cc(-n2c(SCC(=O)NCc3ccco3)nc3ccccc3c2=O)c1,"inconclusive: 6.51 µM [activator, partial curve, poor fit]"
12,Cc1ccc(C)c(C(=O)COC(=O)c2n[nH]c3ccccc23)c1,"inconclusive: 18.4 µM [activator, partial curve, poor fit]"
13,C#CCOCCOCCOCCNc1nc(N2CCN(C(=O)[C@H]([C@@H](C)CC)n3cc(CCCCN)nn3)CC2)nc(N2CCN(C(=O)[C@H](CCCCN)n3cc(CCC(=O)O)nn3)CC2)n1,"inconclusive: 0.103 µM [activator, full curve, poor fit]"
14,COc1ccc(CN2CCCN(S(=O)(=O)c3ccc(Br)cc3)CC2)cc1,"inconclusive: 18.4 µM [activator, single point]"
15,Cc1ccc(C(=O)NCCCc2ccccc2)c(Cl)c1,inactive
16,COC(=O)C1CCCCN1C(=O)CCc1nnc(CCc2c[nH]c3ccccc23)o1 (centres undefined),inactive
17,O=C(Nc1ccc(Cl)cc1)N1CCC(c2nc(-c3ccc(F)cc3)no2)CC1,"inconclusive: 31.6 µM [activator, single point]"
18,COc1ccc(-c2cn3c(C)c(C(=O)Nc4cccc(C)n4)sc3n2)cc1,"inconclusive: 29.1 µM [activator, single point]"
19,O=C(Nc1ccc(N2CCN(C(=O)c3ccccc3)CC2)cc1)c1ccc([N+](=O)[O-])o1,"inconclusive: 0.517 µM [activator, full curve, poor fit]"
